According to the supplement of paper PMC12217912:
This is one part of the list. The full chains were built here from the parent and the listed change. Inactive controls read about 0.05.

B1: TEV protease; numbered along this chain (parent)
chain: MGESLFKGPRDYNPISSSICHLTNESDGHTTSLYGIGFGPFIITNKHLFRRNNGTLVVQSLHGVFKVKDTTTLQQHLVDGRDMIIIRMPKDFPPFPQKLKFREPQREERICLVTTNFQTKSMSSMVSDTSCTFPSGDGIFWKHWIQTKDGQCGSPLVSTRDGFIVGIHSASNFTNTNNYFTSVPKNFMELLTNQEAQQWVSGWRLNADSVLWGGHKVFMVKPEEPFQPVKEATQL

Variants of: B1
Assay: raw area under fraction-flipped curve 0-4 h after induction (AUC4h, not background-subtracted), DNA-recorder readout of cleavage of the substrate (dimensionless); higher = more cleavage of the substrate by the protease variant
Details: temperature: 34 °C; time window: 0-4 h after rhamnose induction
Protocol: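 In vivo DNA recorder in E. coli TOP10(DE3) ΔrhaA at 34 °C. Each TEVp single-site mutant (parent TEVp 0) is paired with a single-site variant of the 7-mer TEVs (canonical ENLYFQ|S). The substrate sits between flexible linkers in a Bxb1-sfGFP-TEVs-SsrA fusion, so cleavage stabilises Bxb1 and speeds flipping of a recombination array, read by NGS. The value is the raw area under the fraction-flipped curve over 0-4 h after rhamnose induction (AUC4h), with ≥20 reads per time point. It is not background-subtracted; inactive controls average about 0.047.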
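Further: Bxb1 expression induced with 0.2% (w/v) L-rhamnose at OD600 near 0.5, cultures sampled hourly, flipped fraction per protease–substrate barcode pair counted by paired-end Illumina sequencing.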

Variant | area with substrate DNLYFQS | area with substrate INLYFQS | area with substrate KNLYFQS | area with substrate LNLYFQS | area with substrate MNLYFQS | area with substrate RNLYFQS | area with substrate VNLYFQS | area with substrate WNLYFQS | area with substrate FNLYFQS | area with substrate HNLYFQS
K221P | 0.0591 | 0.0636 | 0.0507 | 0.0552 | 0.0559 | 0.0658 | 0.0514 | 0.0586 | – | –
L191N | 0.0625 | – | 0.0446 | 0.0536 | – | 0.0555 | – | 0.054 | 0.0521 | 0.0514
N193V | 0.0735 | – | – | – | – | – | 0.057 | – | – | –
N193H | 0.0364 | – | 0.0584 | – | 0.076 | – | – | 0.0611 | – | –
N193F | 0.0768 | 0.0594 | – | – | – | – | – | – | – | 0.0585
Q227H | 0.0668 | 0.0539 | – | 0.0675 | 0.0659 | – | 0.0619 | 0.0537 | – | 0.0699
K185D | 0.0747 | – | 0.0664 | 0.0621 | 0.0619 | – | – | – | – | 0.0701
K185R | 0.0858 | – | 0.0654 | 0.0772 | – | – | – | 0.0687 | – | 0.0705
Q194D | 0.0632 | 0.0711 | 0.0717 | – | – | – | 0.0715 | 0.0647 | 0.0421 | 0.0689
E195Q | 0.0799 | – | 0.0972 | 0.0599 | – | – | – | 0.0706 | – | 0.0615
E195W | 0.0555 | – | – | 0.0706 | – | – | – | 0.0602 | – | 0.056
S171R | 0.0684 | 0.0494 | – | 0.0655 | 0.102 | – | – | – | – | 0.119
S171W | 0.0551 | – | – | – | – | – | – | – | – | 0.0633
T174M | 0.0587 | 0.0462 | – | – | – | – | – | – | – | 0.0654
S209Q | 0.0686 | 0.0477 | 0.0733 | 0.046 | 0.0352 | – | 0.051 | 0.0548 | – | 0.0622
S209T | 0.0893 | – | – | – | – | – | – | – | 0.0458 | –
H215T | 0.0594 | – | – | 0.0626 | – | – | – | 0.0575 | – | 0.058
H215Y | 0.0626 | 0.0457 | 0.0705 | – | – | – | – | – | – | –
L205P | 0.0322 | – | 0.0562 | – | – | – | – | 0.0857 | – | 0.0397
L205Q | 0.0458 | – | – | 0.056 | 0.0588 | – | – | – | – | –
N172D | 0.0744 | – | – | – | 0.0781 | 0.078 | – | 0.0734 | – | 0.0761

Variant | area with substrate DNLYFQS | area with substrate INLYFQS | area with substrate KNLYFQS | area with substrate LNLYFQS | area with substrate MNLYFQS | area with substrate RNLYFQS | area with substrate VNLYFQS | area with substrate WNLYFQS | area with substrate FNLYFQS | area with substrate HNLYFQS
V165K | 0.0626 | 0.0526 | – | 0.0617 | 0.0456 | – | 0.0547 | 0.0503 | – | 0.0529
V165H | 0.0588 | – | – | 0.0394 | 0.0355 | – | – | 0.0467 | 0.0475 | 0.0438
F226P | 0.0843 | – | – | 0.0543 | – | – | – | 0.0575 | – | –
M188V | 0.0813 | – | – | 0.0768 | 0.0936 | – | – | 0.0496 | – | 0.0526
M188G | 0.0773 | 0.0564 | 0.0769 | 0.0614 | 0.0783 | – | – | 0.0568 | – | –
M188F | 0.0636 | 0.0619 | 0.0821 | – | 0.0579 | – | – | 0.0754 | – | 0.051
M188K | 0.0601 | 0.0546 | 0.0625 | 0.0696 | 0.0493 | – | 0.0652 | – | – | 0.0623
V210A | 0.0678 | – | – | – | – | – | – | 0.0551 | – | 0.0527
W199K | 0.0795 | – | 0.0543 | 0.0476 | 0.0644 | 0.0605 | 0.0599 | – | – | 0.0682
W199A | 0.0672 | 0.0445 | – | 0.0683 | 0.0406 | – | – | 0.0628 | – | 0.0447
P228T | 0.0826 | – | 0.0743 | – | – | – | – | 0.0627 | – | 0.0786
I167L | 0.0603 | – | – | 0.0579 | 0.0619 | – | 0.0591 | 0.0485 | – | 0.053
I167Q | 0.0568 | 0.0639 | 0.0669 | 0.0558 | 0.0674 | – | – | 0.0572 | – | 0.0517
N177R | 0.109 | – | 0.081 | 0.0553 | 0.0693 | 0.0548 | – | 0.0595 | – | 0.0571
N177W | 0.0654 | – | 0.0712 | – | – | – | – | 0.0517 | 0.0612 | –
F218E | 0.0776 | 0.0597 | 0.0519 | 0.062 | 0.0684 | – | 0.0625 | 0.0548 | – | 0.0776
F218Q | 0.0604 | 0.0699 | – | 0.047 | 0.0449 | – | 0.088 | 0.0615 | – | –
G214L | 0.0634 | – | – | 0.0579 | – | – | – | – | – | 0.0566
G214T | 0.0662 | – | – | – | – | – | 0.0898 | – | – | –
F173P | 0.0649 | 0.0472 | – | – | 0.0637 | – | – | 0.0558 | – | 0.0562
F173K | 0.0623 | – | 0.049 | – | – | – | – | – | – | 0.0655

Same assay, conditions: temperature: 34 °C; time window: 0-4 h after rhamnose induction

Variant | area with substrate NNLYFQS | area with substrate PNLYFQS | area with substrate QNLYFQS | area with substrate SNLYFQS | area with substrate TNLYFQS | area with substrate YNLYFQS | area with substrate GNLYFQS
L191N | 0.0452 | 0.0539 | 0.0483 | 0.0614 | 0.0515 | – | –
N193V | 0.0594 | – | – | – | – | – | –
N193H | – | 0.102 | – | – | – | 0.0614 | –
N193F | 0.0641 | 0.0603 | 0.0576 | 0.0665 | – | 0.0572 | –
Q227H | – | – | – | – | – | 0.0637 | –
K185D | 0.0536 | 0.0674 | – | – | 0.0551 | – | –
K185R | 0.0814 | 0.0647 | – | 0.053 | – | 0.0676 | –
Q194D | 0.0563 | 0.0774 | – | 0.0571 | 0.0668 | – | 0.0783
E195Q | – | 0.0802 | – | – | – | 0.0578 | –
E195W | – | – | – | – | 0.0716 | – | –
S171R | – | 0.0507 | 0.0622 | – | 0.0799 | – | –
S171W | – | – | – | – | – | 0.0602 | –
T174M | – | 0.0754 | – | – | – | – | 0.106
S209Q | 0.115 | – | – | 0.0801 | 0.066 | 0.0347 | 0.0621
S209T | – | 0.0545 | – | – | – | – | –
H215T | – | – | 0.0505 | 0.0649 | – | – | 0.0455
H215Y | – | – | 0.0559 | 0.0711 | 0.0827 | 0.0628 | –
L205P | 0.0599 | 0.0577 | – | 0.0605 | – | – | –
L205Q | – | 0.0495 | – | – | – | 0.0583 | 0.0664
N172D | – | 0.0849 | – | – | 0.0733 | 0.0624 | 0.0515

Variant | area with substrate NNLYFQS | area with substrate PNLYFQS | area with substrate QNLYFQS | area with substrate SNLYFQS | area with substrate TNLYFQS | area with substrate YNLYFQS | area with substrate GNLYFQS
V165K | – | 0.0519 | – | 0.0527 | 0.0699 | – | 0.0431
V165H | 0.003 | – | – | 0.0336 | – | 0.0343 | –
F226P | 0.0345 | – | – | 0.0687 | 0.0333 | 0.04 | –
M188V | – | – | – | 0.067 | 0.0486 | – | –
M188G | – | – | – | 0.0721 | 0.106 | – | 0.0813
M188K | 0.0811 | 0.0693 | – | – | 0.0709 | – | 0.0712
V210A | – | 0.0692 | – | – | 0.0667 | 0.0646 | –
W199K | – | 0.0717 | – | – | 0.0654 | 0.0671 | –
W199A | – | 0.0566 | – | 0.076 | – | – | –
P228T | – | 0.0665 | – | 0.0578 | – | – | –
I167L | – | 0.0616 | 0.0536 | – | 0.0667 | 0.0624 | –
I167Q | – | 0.0492 | – | 0.0569 | 0.0563 | 0.0601 | –
N177R | – | 0.0841 | – | 0.0815 | – | – | 0.0764
N177W | 0.0565 | 0.0598 | – | 0.0488 | 0.0534 | – | –
F218E | 0.0649 | 0.0745 | – | 0.079 | 0.0567 | 0.0365 | 0.0524
F218Q | – | 0.0632 | – | 0.0547 | 0.0608 | 0.0523 | 0.0513
G214L | – | 0.0634 | – | 0.0741 | 0.0602 | 0.054 | –
G214T | 0.0509 | – | – | 0.052 | – | – | –
F173P | – | 0.0518 | 0.0639 | 0.0429 | – | – | –
F173K | – | – | – | 0.0514 | – | – | –
